Assay results from patent US7629351B2, “N-((1R,2S,5R)-5-(tert-butylamino)-2-((S)-2-oxo-3-(6-(trifluoromethyl)quinazolin-4-ylamino) pyrrolidin-1-yl)cyclohexyl)acetamide and other modulators of chemokine receptor activity, crystalline forms and process” (Bristol-Myers Squibb Company, priority 2006, dated 2009).
Read-outs that look alike come from different tables or passages of the source.

Columns and labels:
hCCR2 [1] = molecular target: T1, hCCR2 (Homo sapiens, UniProt P41597); experiment: Human peripheral blood mononuclear cell binding (CCR2 Binding), 125I-human MCP-1; design: hPBMCs were isolated from human leukopak (Biological Specialty Inc.) using a standard protocol with Ficoll-Hypaque; endogenous in cells; host or cells: human peripheral blood mononuclear cells (from leukopak, Biological Specialty Inc.); conditions: hPBMCs, (n) in brackets
T1 sequence (P41597 1-360 isoform P41597-2): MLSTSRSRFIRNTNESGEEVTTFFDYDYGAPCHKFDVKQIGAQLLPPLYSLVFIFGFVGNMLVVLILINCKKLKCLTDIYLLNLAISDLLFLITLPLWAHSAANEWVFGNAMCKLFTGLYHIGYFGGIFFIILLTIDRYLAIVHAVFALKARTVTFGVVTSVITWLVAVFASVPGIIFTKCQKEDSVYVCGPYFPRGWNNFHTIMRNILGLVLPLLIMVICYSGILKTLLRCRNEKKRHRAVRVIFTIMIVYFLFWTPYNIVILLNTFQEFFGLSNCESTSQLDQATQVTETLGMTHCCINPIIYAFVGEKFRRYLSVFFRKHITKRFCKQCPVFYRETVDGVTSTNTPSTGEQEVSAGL

hERG [2] = molecular target: T2, hERG (Homo sapiens, UniProt Q12809); experiment: hERG patch clamp (HEK-293 cells); conditions: pH 7.4
CCR2 [3] = molecular target: T3, CCR2 (Homo sapiens, UniProt P41597); experiment: Binding to hCCR2 (cold competition ligand binding, 125I-human MCP-1)
[4] = system: mononuclear cell recruitment to the skin; experiment: Intradermal MCP-1 challenge model in cynomolgus monkey; type: in vivo; conditions: for Mononuclear cell score / Eos score / PMN score: mean histological score, scale 0 to 4; for Mononuclear cell score: MCP-1 sites; for Eos score: eosinophils; for PMN score: neutrophils; for Total cell score: sum of mean values for each cell type
Experimental: Intradermal injection of MCP-1 results in the infiltration of mononuclear cells to the injection site. This model was initially developed to assess the inhibitory effect of CCR2 antagonists on the infiltration of mononuclear cells to the skin tissue injected with human MCP-1. The cellular infiltrate can be measured semi-quantitatively by histological scoring.
Immediately after dosing on Day 3, all animals received 2 intradermal injections of 10 μg (50 μL/injection ) of human MCP-1 (R & D Systems) and 2 intradermal injections of its DPBS control (50 μl/injection) at separate sites on the dorsal thorax. Dermal biopsies of all sites were obtained at approximately 18 hours following MCP-1 (or DPBS) challenge. Biopsies were processed for semi-quantitative histological evaluation. Representative sections of skin samples were examined by light microscopy; microscopic lesions and cellular infiltration were noted and their incidences were tabulated.
In addition to biopsy analysis, blood was collected and evaluated for complete blood counts and cell differentials. Also evaluated were plasma samples for compound (and metabolite) concentrations, and serum samples for systemic MCP-1 levels.

hERG [5] = molecular target: T2, hERG; experiment: hERG Flux (Tl+ flux, FLIPR, HEK293 cells); type: cell-based; design: expressed in transfected cells; conditions: HEK293 cells expressing hERG
CCR2 [6] = molecular target: T3, CCR2; experiment: In vivo receptor occupancy in blood of hCCR2 KI mice, 48-hour TG peritonitis model (Gaddum equation)
hCCR2 KI mice (EAE) = experiment: EAE model of multiple sclerosis in hCCR2 KI mice; type: in vivo
[7] = molecular target: human cardiac sodium channel, SCN5A (Homo sapiens, UniProt Q14524); experiment: Sodium channel patch clamp (HEK-293 cells); type: cell-based; conditions: 30,000 nM, read-out: Na+ channel patch clamp (% Inhib.)
Experimental: The compound was tested at a protein-free aqueous buffer. For determining steady state inhibition, sodium currents were elicited every 5 seconds using the following voltage protocol: cells were held at a potential of −90 mV and stepped to −20 mV for 60 ms. Effects were calculated by measuring inhibition of peak current during the test pulse to −20 mV. Rate-dependence of inhibition was assessed by stimulation at frequencies of 1 Hz and 4 Hz.

cyno chemotaxis = experiment: Cyno chemotaxis assay; type: cell-based, cynomolgus monkey; conditions: Macaca fascicularis
hCCR2 [8] = molecular target: T1, hCCR2

T2 sequence (Q12809 whole entry): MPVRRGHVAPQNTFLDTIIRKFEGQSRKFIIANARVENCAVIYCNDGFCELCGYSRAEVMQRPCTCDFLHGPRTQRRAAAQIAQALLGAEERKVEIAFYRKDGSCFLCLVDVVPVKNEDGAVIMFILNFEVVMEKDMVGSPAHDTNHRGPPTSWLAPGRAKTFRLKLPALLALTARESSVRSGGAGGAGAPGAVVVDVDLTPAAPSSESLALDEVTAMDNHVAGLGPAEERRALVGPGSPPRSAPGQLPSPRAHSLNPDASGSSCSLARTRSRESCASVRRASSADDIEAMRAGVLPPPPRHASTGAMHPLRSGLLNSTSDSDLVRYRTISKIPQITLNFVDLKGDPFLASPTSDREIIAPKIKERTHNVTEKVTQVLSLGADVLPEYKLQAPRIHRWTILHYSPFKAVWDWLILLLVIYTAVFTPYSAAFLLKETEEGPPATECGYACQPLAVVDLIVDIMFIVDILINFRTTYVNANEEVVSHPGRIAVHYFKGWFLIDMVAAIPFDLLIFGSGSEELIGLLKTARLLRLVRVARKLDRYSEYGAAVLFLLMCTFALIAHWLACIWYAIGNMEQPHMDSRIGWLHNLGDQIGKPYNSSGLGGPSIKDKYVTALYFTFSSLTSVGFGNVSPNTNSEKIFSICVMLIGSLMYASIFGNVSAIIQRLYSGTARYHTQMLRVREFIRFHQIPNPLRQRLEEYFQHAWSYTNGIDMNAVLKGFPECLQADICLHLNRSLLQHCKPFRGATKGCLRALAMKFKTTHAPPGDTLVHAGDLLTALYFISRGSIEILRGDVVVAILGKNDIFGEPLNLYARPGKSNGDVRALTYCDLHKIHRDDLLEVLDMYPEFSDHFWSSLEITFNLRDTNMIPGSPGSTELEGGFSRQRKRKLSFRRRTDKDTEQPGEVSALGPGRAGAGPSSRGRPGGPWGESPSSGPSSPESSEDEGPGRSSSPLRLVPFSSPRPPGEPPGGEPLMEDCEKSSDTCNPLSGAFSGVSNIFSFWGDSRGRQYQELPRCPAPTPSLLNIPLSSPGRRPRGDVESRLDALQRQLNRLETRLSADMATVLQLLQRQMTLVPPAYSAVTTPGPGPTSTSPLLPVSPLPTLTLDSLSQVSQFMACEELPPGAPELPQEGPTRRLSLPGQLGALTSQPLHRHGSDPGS
UniProt Q14524, sequence (Q14524 whole entry): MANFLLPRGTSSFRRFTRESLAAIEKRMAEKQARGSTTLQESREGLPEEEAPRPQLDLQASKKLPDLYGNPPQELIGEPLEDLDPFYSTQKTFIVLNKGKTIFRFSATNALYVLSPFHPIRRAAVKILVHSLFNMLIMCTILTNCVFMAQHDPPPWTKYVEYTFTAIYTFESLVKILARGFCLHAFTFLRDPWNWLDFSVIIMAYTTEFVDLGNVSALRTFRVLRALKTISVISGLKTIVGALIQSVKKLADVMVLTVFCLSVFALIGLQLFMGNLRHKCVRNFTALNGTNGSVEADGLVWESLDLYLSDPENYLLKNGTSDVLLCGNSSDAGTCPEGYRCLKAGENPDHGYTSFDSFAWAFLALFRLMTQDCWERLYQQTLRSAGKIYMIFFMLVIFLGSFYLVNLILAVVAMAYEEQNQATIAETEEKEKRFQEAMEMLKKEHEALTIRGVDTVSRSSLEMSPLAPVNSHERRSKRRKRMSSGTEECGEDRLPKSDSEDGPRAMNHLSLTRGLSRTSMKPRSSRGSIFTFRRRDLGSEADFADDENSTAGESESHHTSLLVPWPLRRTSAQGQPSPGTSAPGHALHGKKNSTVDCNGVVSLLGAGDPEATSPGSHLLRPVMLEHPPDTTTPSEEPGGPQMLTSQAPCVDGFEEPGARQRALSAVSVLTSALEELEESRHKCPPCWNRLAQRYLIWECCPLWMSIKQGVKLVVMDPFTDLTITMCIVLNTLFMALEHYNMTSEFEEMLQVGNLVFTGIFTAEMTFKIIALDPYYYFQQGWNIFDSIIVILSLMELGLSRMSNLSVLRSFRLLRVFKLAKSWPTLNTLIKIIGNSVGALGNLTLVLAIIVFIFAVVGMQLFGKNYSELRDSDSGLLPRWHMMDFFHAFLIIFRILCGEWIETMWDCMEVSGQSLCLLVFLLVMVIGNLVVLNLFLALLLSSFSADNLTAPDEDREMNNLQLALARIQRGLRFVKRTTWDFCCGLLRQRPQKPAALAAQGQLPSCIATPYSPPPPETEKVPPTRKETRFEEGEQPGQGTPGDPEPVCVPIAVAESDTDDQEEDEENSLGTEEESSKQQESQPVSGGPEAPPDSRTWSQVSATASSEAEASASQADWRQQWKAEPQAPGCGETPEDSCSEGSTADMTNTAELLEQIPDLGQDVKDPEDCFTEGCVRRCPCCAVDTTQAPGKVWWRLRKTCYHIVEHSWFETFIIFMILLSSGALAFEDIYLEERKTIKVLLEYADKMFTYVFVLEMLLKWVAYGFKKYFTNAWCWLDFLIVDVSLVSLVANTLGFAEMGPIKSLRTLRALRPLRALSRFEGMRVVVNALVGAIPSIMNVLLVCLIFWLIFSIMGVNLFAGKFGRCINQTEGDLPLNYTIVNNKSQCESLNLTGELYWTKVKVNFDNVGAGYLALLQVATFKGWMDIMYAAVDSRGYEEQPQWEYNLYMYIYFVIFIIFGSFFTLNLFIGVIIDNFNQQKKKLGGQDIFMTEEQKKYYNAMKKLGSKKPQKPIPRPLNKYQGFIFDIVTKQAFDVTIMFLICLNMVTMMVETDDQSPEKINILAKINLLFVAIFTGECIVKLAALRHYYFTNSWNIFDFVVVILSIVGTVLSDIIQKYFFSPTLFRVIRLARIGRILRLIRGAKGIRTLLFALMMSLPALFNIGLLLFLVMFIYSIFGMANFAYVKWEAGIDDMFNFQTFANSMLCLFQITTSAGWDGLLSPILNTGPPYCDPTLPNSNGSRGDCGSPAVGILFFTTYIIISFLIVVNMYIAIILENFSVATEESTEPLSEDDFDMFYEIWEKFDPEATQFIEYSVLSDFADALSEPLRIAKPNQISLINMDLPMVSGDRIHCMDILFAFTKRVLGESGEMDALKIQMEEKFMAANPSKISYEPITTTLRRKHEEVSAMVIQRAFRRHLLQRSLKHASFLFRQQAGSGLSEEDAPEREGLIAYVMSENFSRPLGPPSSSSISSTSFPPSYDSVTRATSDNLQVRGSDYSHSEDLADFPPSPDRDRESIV

With `CC(=O)N[C@@H]1C[C@H](NC(C)(C)C)CC[C@@H]1N1CC[C@H](Nc2ncnc3ccc(C(F)(F)F)cc23)C1=O` [Example 1, N-((1R,2S,5R)-5-(tert-butylamino)-2-((S)-2-oxo-3-(6-(trifluoromethyl)quinazolin-4-ylamino)pyrrolidin-1-yl)cyclohexyl)acetamide] the IC50 (hCCR2 [1]) was 2.74 ± 1.34 nM, the inhibition at 10000 nM (hERG [2]) was 12% and the inhibition at 30000 nM (hERG [2]) was 19%. The Ki (CCR2 [3]) was 1.3 nM, the “Mononuclear cell score (inhibition %)” value ([4]; 5 mg/kg) was “(75%)” and the Mononuclear cell score ([4]; 5 mg/kg) was 0.5. For the same compound, the Eos score ([4]; 5 mg/kg) was 1.4, the PMN score ([4]; 5 mg/kg) was 0.1 and the Total cell score ([4]; 5 mg/kg) was 2.0. The “Mononuclear cell score (inhibition %)” value ([4]; 10 mg/kg) was “(95%)”, the Mononuclear cell score ([4]; 10 mg/kg) was 0.1 and the Eos score ([4]; 10 mg/kg) was 0.8. For the same compound, the PMN score ([4]; 10 mg/kg) was 0.1, the Total cell score ([4]; 10 mg/kg) was 1.0 and the “Mononuclear cell score (inhibition %)” value ([4]; 20 mg/kg) was “(95%)”. The Mononuclear cell score ([4]; 20 mg/kg) was 0.1, the Eos score ([4]; 20 mg/kg) was 0.8 and the PMN score ([4]; 20 mg/kg) was 0. For the same compound, the Total cell score ([4]; 20 mg/kg) was 0.9, the “mononuclear cell recruitment to skin (FIG. 20)” value ([4]; in words) was “inhibited mononuclear cell recruitment to skin” and the IC50 (hERG [5]) was greater than 80000 nM. The “% free CCR2” value (CCR2 [6]; 1 mg/kg) was 48.3%, the “% mouse MCP-1 bound CCR2” value (CCR2 [6]; 1 mg/kg) was 0.26% and the “% of Example 1-bound CCR2” value (CCR2 [6]; 1 mg/kg) was 51.4%. The “% free CCR2” value (CCR2 [6]; 25 mg/kg) was 8.6%, the “% mouse MCP-1 bound CCR2” value (CCR2 [6]; 25 mg/kg) was 0.16% and the “% of Example 1-bound CCR2” value (CCR2 [6]; 25 mg/kg) was 91.2%. The “% free CCR2” value (CCR2 [6]; 100 mg/kg) was 2.4%, the “% mouse MCP-1 bound CCR2” value (CCR2 [6]; 100 mg/kg) was 0.04% and the “% of Example 1-bound CCR2” value (CCR2 [6]; 100 mg/kg) was 97.6%. For the same compound, the “total inflammatory cellular infiltrate, histological evaluation of the spinal cord versus vehicle” value (hCCR2 KI mice (EAE); Day 22) was “did not demonstrate a significant difference”, the “reduction of area under curve (AUC) of the clinical score” value (hCCR2 KI mice (EAE); both doses, 25 mg/kg and 55 mg/kg BID oral, p<0.05) was 49% and the “clinical score (FIG. 22)” value (hCCR2 KI mice (EAE); in words) was “reduced clinical score”. For the same compound, the inhibition at 30000 nM [7] was 29%, the IC50 (cyno chemotaxis) was 7.1 ± 2.7 nM and the IC50 (hCCR2 [8]) was 3.7 nM.
